Measured values published in the supplement of paper PMC3334620.
Over roughly 33,000 sequences, “E-score (-0.5 to 0.5)” has its median near -0.053; the highest 2% begin near 0.37. Some of the results follow.

target: Hap1 (UniProt P0CE41); assay: PBM E-score (8-mer binding enrichment) (E-score (-0.5 to 0.5)); higher = stronger / more preferred TF binding; most listed sequences are background and not binding sites; details: protein concentration: 200 nM; construct: GST-DNA-binding domain
How it was run: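 Masliner-normalised scans of fluorescent anti-GST signal were the basis for scoring. That signal came from GST-tagged yeast transcription factors applied at about 100-200 nM to double-stranded universal all-10-mer Agilent arrays on fresh or once-stripped slides. Each ungapped eight-base word, pooled with its reverse complement, received an E-score from the Universal PBM Analysis Suite.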

Sequence of UniProt P0CE41 (P0CE41 whole entry, the tested form may be a part): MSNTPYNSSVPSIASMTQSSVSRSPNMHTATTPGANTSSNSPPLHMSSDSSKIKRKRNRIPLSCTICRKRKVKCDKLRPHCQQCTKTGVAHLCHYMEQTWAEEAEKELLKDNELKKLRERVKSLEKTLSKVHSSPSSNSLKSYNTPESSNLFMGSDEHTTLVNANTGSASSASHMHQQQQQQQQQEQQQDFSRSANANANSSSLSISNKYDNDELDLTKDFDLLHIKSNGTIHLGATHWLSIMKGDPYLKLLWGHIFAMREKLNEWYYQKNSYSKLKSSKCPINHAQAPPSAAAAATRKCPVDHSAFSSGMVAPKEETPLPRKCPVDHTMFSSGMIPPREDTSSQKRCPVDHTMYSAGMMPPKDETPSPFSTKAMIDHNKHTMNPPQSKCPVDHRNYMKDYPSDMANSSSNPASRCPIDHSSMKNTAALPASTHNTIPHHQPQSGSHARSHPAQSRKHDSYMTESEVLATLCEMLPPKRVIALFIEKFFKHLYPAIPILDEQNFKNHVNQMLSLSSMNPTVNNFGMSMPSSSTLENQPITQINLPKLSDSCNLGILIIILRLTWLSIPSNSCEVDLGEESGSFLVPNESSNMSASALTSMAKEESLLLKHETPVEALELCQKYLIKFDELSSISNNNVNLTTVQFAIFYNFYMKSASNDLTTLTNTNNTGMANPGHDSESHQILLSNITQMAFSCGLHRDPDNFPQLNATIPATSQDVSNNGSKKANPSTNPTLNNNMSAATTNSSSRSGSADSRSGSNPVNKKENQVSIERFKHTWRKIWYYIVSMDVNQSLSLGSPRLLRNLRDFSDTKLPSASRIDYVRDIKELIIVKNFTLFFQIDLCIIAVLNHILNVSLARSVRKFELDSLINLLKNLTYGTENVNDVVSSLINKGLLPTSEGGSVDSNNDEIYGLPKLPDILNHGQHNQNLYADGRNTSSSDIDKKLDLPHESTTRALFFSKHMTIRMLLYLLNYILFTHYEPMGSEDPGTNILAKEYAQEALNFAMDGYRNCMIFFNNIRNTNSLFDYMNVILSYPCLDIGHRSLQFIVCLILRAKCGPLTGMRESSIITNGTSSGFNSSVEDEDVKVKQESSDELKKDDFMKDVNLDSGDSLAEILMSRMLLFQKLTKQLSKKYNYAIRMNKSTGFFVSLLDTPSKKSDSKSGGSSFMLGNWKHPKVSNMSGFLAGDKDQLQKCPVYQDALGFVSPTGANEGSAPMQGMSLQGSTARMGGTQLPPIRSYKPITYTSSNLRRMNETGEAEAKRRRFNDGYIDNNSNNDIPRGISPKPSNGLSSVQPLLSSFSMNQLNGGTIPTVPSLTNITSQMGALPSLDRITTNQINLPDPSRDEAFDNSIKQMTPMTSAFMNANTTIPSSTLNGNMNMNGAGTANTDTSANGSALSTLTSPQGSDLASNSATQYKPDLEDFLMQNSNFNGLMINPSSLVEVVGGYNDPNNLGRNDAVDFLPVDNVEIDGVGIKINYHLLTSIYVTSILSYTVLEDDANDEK

Sequence	PBM E-score
ACATGAGT	-0.184
ACTTGAGC	-0.261
GATTTTAC	0.0282
AATTCCTC	-0.00391
CCTATATC	0.00156
GTCGTGGA	-0.0505
AATGACTC	-0.24
GTAACTAA	0.0966
CGGGTGCA	0.224
CAATGGCC	-0.00636
CAGTGGGC	-0.136
GACATCAC	0.0762
CCCCTGCA	-0.218
CTAGGCAA	-0.128
ATACATTC	-0.19
GACTTGCC	-0.148
AATGACAG	-0.303
ACAAGAGA	-0.0005
CTCTGTCC	0.00047
CATCACGA	-0.398
CATATTGA	-0.355
AGCCCGGA	0.39
CAAACGCA	-0.209
CATTGGAG	-0.0139
CATCTAAC	-0.0126

Sequence	PBM E-score
CGGTGCTA	0.323
CCATGTCC	0.0819
CTGGGTCC	-0.0646
AATGTCGT	-0.133
GGCCGCAA	0.175
CGAACGTA	-0.0484
ACGGACCC	0.278
AGAGACAC	-0.123
ACGTAAAT	-0.00539
GCGAACCC	0.107
AGAAAACT	-0.283
CGTTAGAA	0.032
ACTTCCTA	-0.127
ACACTAAA	-0.0992
AGCGCGTC	-0.168
GCAGCACC	-0.0891
ATATAGGC	0.144
ACCGAAAA	0.26
CAACAAGC	-0.11
AACCTTAA	0.139
GGGGCTAA	0.154
GGGTGCTA	-0.0463
TGATTTAA	0.0921
AAAGTCTC	-0.119
GCAATTGC	-0.0502

Sequence	PBM E-score
ACAGCGAG	-0.0158
CCACGTGA	-0.141
TCTGAGCA	-0.181
ACCCTATC	-0.0105
GAGACGTA	-0.0894
ATTTGGAG	-0.114
ACATTAAA	-0.138
CCTGTATA	-0.0951
CGTACTCC	0.131
CCTATTTC	0.0752
ACCGATCG	0.256
AGTCATAT	-0.0572
CGACAGGA	0.217
AAGCTTAG	-0.214
ACACTACC	-0.159
TACCTCCA	-0.176
AGTGCTAA	0.0956
GTCAGCCA	-0.237
AGGGATTG	-0.114
GCGCGGTA	0.21
CAACCCTG	-0.208
ACCTACGT	0.00887
GGGACTTA	0.0397
CTACGAAG	-0.337
ATCGCACA	-0.0777

Sequence	PBM E-score
GCGCATGA	-0.162
CATGCACA	-0.199
AACGTGGG	-0.199
CCTCTCGA	-0.281
ATGCTCTG	-0.198
AGCATCCG	0.215
CAATGTTC	0.0787
GGATTGTA	0.0837
ACGGCGCC	0.13
CATCTGGA	0.151
CCGGCGTA	0.315
GATTTTTA	0.088
CCTTCGAG	0.00318
AACGTGCA	-0.213
GATAGCCC	0.0238
AGCACTAG	-0.2
GTTCATCA	-0.151
CTGATATA	-0.00394
GCAGATAC	0.029
CTGCGAAA	-0.217
CGATCACC	0.106
ACGACTCT	-0.256
AGCTGACT	-0.127
CTGTAGTA	-0.0711
GACTACCA	-0.143

Sequence	PBM E-score
CCGGGTAA	0.342
GAGGCTGC	-0.183
CGAGCCCC	0.114
CGATACCA	0.0846
ACATTCTA	-0.136
AACCGTGC	-0.0215
CCAATAGA	-0.15
CGGTAGCC	0.143
CTGACTAA	-0.0139
GGGTATAA	0.287
CTGTATCA	-0.251
GAAGAATC	0.196
CACTCTGA	-0.178
CAGTTCGA	-0.156
ATTGTTGG	0.0512
AGTGGGAA	-0.0192
ATTGCTAA	-0.114
CACATTAG	-0.185
CGGAACTA	0.436
AGACGACT	-0.234
GGATATCC	0.236
GAATATCC	0.118
GATCCGCC	0.29
ACTGTGGA	-0.259
AGGGAGGA	-0.294

Sequence	PBM E-score
ATTCCCTG	-0.0487
CGCCTGAC	0.0343
GTCGAGCA	-0.3
GTAGCTAC	-0.221
AATGGTCC	0.143
CCGCCTAG	-0.0794
AGCAGTAG	-0.24
AAGCGCAA	0.0371
AGACCAGA	-0.267
ATGGAGTC	-0.104
GAACTGCC	-0.0156
GACCGATA	0.434
ATCTGCGA	0.00883
CCCGATCG	0.334
ACGCAACT	0.064
CTTGGATC	-0.127
CGGTGGAA	0.199
GAAGATAA	0.0895
CAAGTCAG	-0.19
AACTTAAG	-0.0454
AGGGAAAG	-0.0867
AGAGACAT	-0.184
AGTGACGA	-0.125
AGAGTTTA	0.00193
CACGTCCG	0.333

Sequence	PBM E-score
GGGGTTAA	0.386
CGGACGGA	0.397
AACCGGAT	0.286
ATGTTCCG	0.287
GATCATCC	0.26
ACAATTAG	-0.221
CCCGCACC	0.151
CTCAAATA	-0.18
GGTAAGAC	-0.0502
ACAAGGCC	-0.116
CTTATACA	-0.18
AGCTGGAT	-0.176
CTGATTTA	0.067
ACCAATCC	0.152
AAACTGGT	-0.0861
CCTTGAAC	-0.1
GACACTGA	0.0247
GAGTGTAC	-0.096
GTAGCACA	-0.18
GGGCAACA	0.0459
CACAAGCA	-0.283
GATGATAA	-0.0336
AACTGAGA	-0.226
ATTCAAGG	-0.268
CCCAATCG	0.111

Sequence	PBM E-score
ACCAGCGT	-0.266
AGCGTACA	-0.382
ATCATGGG	-0.0614
AGGCCCGG	0.288
CCCCCGAG	0.308
AGAAGTTA	-0.239
AAGGGCCC	-0.00529
ATCACGCG	0.176
AAAAGGTG	-0.144
ATACTAGG	0.00469
AGGTTAGG	-0.116
AACAAAAA	-0.129
ACCCAGGT	-0.165
TAGCACCA	-0.14
GCGAGTCA	-0.0298
CGCAACTC	0.0922
CTTGCGAA	0.0558
ACTGCGTC	-0.293
ATCGTCGG	0.301
ACTCGTTC	-0.197
ACGGAAAT	0.432
GAACGCAA	-0.0397
CCAGCGAC	-0.229
CATGCAAC	-0.0671
AAAAGACC	-0.0306

Sequence	PBM E-score
AGTATAGG	-0.0933
CTAATAAC	0.0104
CTTGCATC	-0.143
ATGCCGCC	0.195
CTCGCGCC	0.106
AGCGACTA	-0.298
CAAGGCTA	-0.0569
ACATCCTA	-0.222
ACTCTTTA	-0.181
AATGCGTA	-0.00981
GTGCGTGA	-0.0213
CTAGTGTC	-0.0851
AGGACGTG	-0.239
GTTCTCGA	-0.169
AATTAATT	-0.205
GTTCGATA	0.0968
TAAGTCGA	-0.22
ATCCGGGC	0.364
AATCCCCG	0.403
AGGCCCCC	-0.0231
CTGGATAA	0.037
ACTTATGA	-0.0989
GCTTTTTA	0.0123
ACGTGAGA	-0.195
AAAGGTCC	0.0478

Sequence	PBM E-score
ACCTTGGA	-0.148
AGAGAGTG	-0.238
GAGTTGGC	0.023
CCGGAAGA	0.365
AGTAAGGC	0.0483
AAACCATC	0.157
AACCGACG	0.266
CCCCAATA	-0.29
AGTTCTAA	-0.0553
CATACGCC	-0.0505
ACCACGCA	-0.302
AGTGACTC	-0.193
GCAGCAGC	-0.238
ACGTACAG	-0.0568
ACGACGCG	0.0318
CACTGTGG	-0.221
GCACATCA	-0.052
TAGACTAA	-0.131
AGGAGATG	-0.0442
CGTTGATA	0.133
GGGCCAAA	0.159
GTTCCAGA	-0.317
ATTCAATC	0.0541
CGATGGGA	0.0948
GTGTCACA	-0.0573

Sequence	PBM E-score
CCAGGGAA	-0.364
TGGGTTAA	-0.0326
ACGTTACC	0.15
ACACCTGG	-0.131
GAAGGTCC	0.0808
GGTCAATA	-0.141
ATGGTTCG	0.0239
GCGGATCA	0.209
TCTCACCA	-0.0141
CATATGCC	0.0372
ATTTGCCA	-0.279
AGATAACT	-0.0158
CCACAGCA	-0.107
ACCGCAAT	0.239
CATCTTGC	0.0273
AACACGCG	0.00839
AGCGTAAA	-0.0072
ATGCTAAA	-0.137
CAAAAATC	-0.164
GGTGCGTA	-0.0181
AAAATTTG	-0.227
GGAGCACA	0.00045
AGCGCTCC	-0.0137
ATGGTGTA	-0.15
CTGAGAGA	-0.256

Sequence	PBM E-score
ATCAGTGC	-0.212
GTAACCGA	0.244
ATGAAGTG	-0.133
CGACAGGC	-0.076
ACGGGTAG	-0.0904
ACCTCCAG	-0.153
AAAAGCGT	-0.124
AAGCTATC	0.122
ATGTACGA	0.105
CAGGAACG	-0.155
GTAATTCA	-0.0294
GCCATGAC	-0.0836
AACTGTAC	-0.179
GTGAATCA	-0.146
AAATGTGT	-0.0775
AGACGTCT	-0.186
AGCGAATA	-0.0417
TCAATGCA	-0.31
CTGATGTA	-0.038
ACCTTGAG	-0.113
GGGTAAAC	-0.0245
GAACAGTA	-0.188
ACCAGGGT	-0.258
CAGAATGG	-0.0344
CCGGCCCC	0.312

Sequence	PBM E-score
GTTATACA	-0.163
CACAGCTG	-0.194
CTCACGGC	0.0364
ATTGTACC	0.00536
GGTACCGA	0.179
TACGCCGA	0.301
AAATAGGG	-0.0374
GGCACTTA	-0.0691
CAGTTAGG	-0.258
AGTCTTAG	-0.278
AAATTTAC	-0.0134
GAAAAACC	0.186
CTCGGTGC	0.172
CGCACTGC	-0.116
ACGCAGGG	-0.134
AAGCGGGG	0.0382
CGTTTAAG	0.0983
AGCTCAGC	-0.175
AACCATCG	0.176
TAGAGAGA	-0.214
CCCCAGGG	-0.234
AGAGATGG	-0.0221
ACAAATCA	-0.211
GTGATAAC	0.0828
GGATCACA	0.00535

Sequence	PBM E-score
CACCGCCA	-0.0785
CAATTGCC	-0.00336
GCGTCGCC	-0.0379
CGGTTCTA	0.276
ATGCCCAC	-0.262
CTCCAACC	0.082
CAAAAACG	-0.0605
CTCGAAAA	-0.155
CGGGGGCA	0.116
CAACCAAG	-0.27
AGTAACAG	-0.132
GACGAATC	0.0682
AGATACCC	0.215
CGCTCATA	0.0332
AAGCCCGG	0.407
ACATGAGC	-0.15
GAACGATA	0.0594
ACCTCTGG	-0.181
CAGACCCC	-0.129
